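Grown in 96-well plates, cells were treated for 48 hours with each compound at five concentrations. Insufficient inhibition: endpoint recorded as highest concentration tested. GI50 marks 50% less growth. TGI is the concentration that stops growth completely.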
test system: NCI-H322M lung; experiment: NCI-60 cell line screen, 48 h

Point of comparison: `C/C(=N\Nc1nc2ccccc2o1)c1ncccn1`, TGI 24.5 µM. Against it:
- CC12CC/C(=N/NC(N)=O)C3C1CCCC32 — higher, > 100 µM
- CCc1cccc(C)c1N1C(=O)C(=O)C(c2nc3ccccc3o2)/C(=N/NC(=S)NN)C1=O (centres undefined) — higher, > 100 µM
- COc1ccc(CN2C(=O)/C(=C\C(=O)c3ccc(OCCN4CCCC4)cc3)c3ccccc32)cc1 — within 1.5-fold, 28.2 µM
- O=C(Nc1ccc(Oc2ccc(NC(=O)Nc3ccccc3Cl)cc2)cc1)Nc1ccccc1Cl — higher, > 100 µM
- COc1cc(-c2cc(-c3cccs3)c(C#N)c(N3CCOCC3)n2)cc(OC)c1OC — higher, > 100 µM
- Clc1ccc(-c2nc3c(-c4ccccc4)nc(-c4ccccc4)cn3c2-c2ccc(Cl)cc2)cc1 — higher, > 100 µM
- Cc1c2oc3c(C)cnc(C(=O)NC4C(=O)NC(C(C)C)C(=O)N5CCCC5C(=O)N(C)CC(=O)N(C)C(C(C)C)C(=O)OC4C)c3nc-2c(C(=O)NC2C(=O)NC(C(C)C)C(=O)N3CCCC3C(=O)N(C)CC(=O)N(C)C(C(C)C)C(=O)OC2C)c(N)c1=O (centres undefined) — higher, > 70.9 µM
- COc1ccc2nc3cc([N+](=O)[O-])ccc3c(NNc3ccc([N+](=O)[O-])cc3)c2c1 — higher, > 100 µM
- COc1ccc(OC)c(N=Cc2cc(OC)c(OC)c(OC)c2)c1 — higher, > 100 µM
- CS(=O)(=O)c1ccc2c(c1)C(=O)c1c-2n(CCCBr)c(=O)c2cc([N+](=O)[O-])ccc12 — higher, > 100 µM
- O=C1C(Cl)=C(N2CCN(CCOCCO)CC2)C(=O)c2ccccc21 — 1.5-fold higher, 37.4 µM
- COC(=O)CN=C1NC(=S)N(Cc2ccc(OC)cc2)C12CCCC2 — higher, > 100 µM
- COc1cccc(N2C(=O)/C(=C/c3ccc(N(CCC#N)CCC#N)cc3)N=C2c2cc([N+](=O)[O-])ccc2Cl)c1 — higher, > 100 µM
- CCCC(=O)N(C)N=Nc1ccc(C(=O)OCC)cc1 — higher, > 100 µM
- CC(=O)n1nnc2ccc([N+](=O)[O-])cc21 — higher, > 100 µM
- CCOc1cc(/C=N/c2nc3cc4sc(/N=C/c5ccc(O)c(OCC)c5)nc4cc3s2)ccc1O — higher, > 100 µM
- CCCCCCc1cc2cc(C(=O)NCc3ccccc3)c(=N)oc2cc1O — higher, > 100 µM
- Cn1cnc([N+](=O)[O-])c1Sc1nc2ccccc2o1 — 1.5-fold higher, 37.5 µM
- CC1=NN(c2cccc(Cl)c2)C2(C1=Cc1cccs1)C(Cl)C(=O)N2c1nc2ccccc2s1 (centres undefined) — 1.9-fold higher, 47.1 µM
- COc1ccc(C2CC(c3ccc(NS(=O)(=O)c4cc([N+](=O)[O-])ccc4C)cc3)=NN2S(=O)(=O)c2cc([N+](=O)[O-])ccc2C)cc1 (centres undefined) — higher, > 100 µM
- COC(=O)C(=NNc1ccccc1[N+](=O)[O-])C(=O)OC — higher, > 100 µM
- CCSc1nc(NC(C)c2ccccc2)c2cnn(CO)c2n1 (centres undefined) — higher, > 100 µM
- CCN(CC)C(=S)/N=C(\SC(=S)N(CC)CC)c1ccccc1 — higher, > 100 µM
- O=C(O)CCC(=O)Oc1ccc(O)c2c1CCCC2=O — higher, > 100 µM
- COc1ccc(Cc2cc(OC)c(OC)c(OC)c2)cc1 — higher, > 100 µM
- Cc1ccc(C(=O)C(c2nc3n(c2O)C(=N)N=N3)c2nc3n(c2O)C(=N)N=N3)cc1 (centres undefined) — higher, > 100 µM
- Cc1ccc(S(=O)(=O)NN=C2C(C)(C)CC2(C)C)cc1 — higher, > 100 µM
- CCOC(=O)Nc1ccc2nc(N3CCCCCC3)sc2c1 — higher, > 100 µM
- COc1ccc2nc3c(C)cc4ccccc4n3c2c1 — higher, > 100 µM
- CC1OC(OC2C(OC(=O)[C@]34CCC(C)(C)CC3C3=CCC5[C@@]6(C)C[C@H](O)[C@H](OC7OC(COC8OC(CO)C(O)C(O)C8O)C(O)C(O)C7O)[C@@](C)(C(=O)O)C6CC[C@@]5(C)C3(C)CC4)OCC(O)C2O)C(O)C(O)C1OC1OCC(O)C(O)C1O (some centres undefined) — higher, > 100 µM
- CO[C@H](C(=O)O[C@H]1C(=O)N2CC[C@@H]3CCC[C@H]1C32C)c1ccccc1 (some centres undefined) — higher, > 100 µM
- COC(=O)C1CC(c2ccc(Cl)cc2)=NO1 (centres undefined) — higher, > 100 µM
- CC1(CO)C(O)CCC2(C)C1C(O)CC1CC3CC12CCC3(O)CO (centres undefined) — higher, > 225 µM
- Cc1cncc(-c2nc(NCCc3c[nH]c4ccccc34)c3ncn(C(C)C)c3n2)c1 — within 1.5-fold, 32.8 µM
- O=C1C[C@@H]2[C@@H](CCC23CCCC3)N1 — higher, > 100 µM

Point of comparison: `CCOC(=O)Nc1ccc2nc(N3CCCCCC3)sc2c1`, GI50 20.6 µM. Against it:
- COc1ccc(CN2C(=O)/C(=C\C(=O)c3ccc(OCCN4CCCC4)cc3)c3ccccc32)cc1 — within 1.5-fold, 14.7 µM
- COc1cc(-c2cc(-c3cccs3)c(C#N)c(N3CCOCC3)n2)cc(OC)c1OC — higher, > 31.4 µM
- Clc1ccc(-c2nc3c(-c4ccccc4)nc(-c4ccccc4)cn3c2-c2ccc(Cl)cc2)cc1 — higher, > 100 µM
- CS(=O)(=O)c1ccc2c(c1)C(=O)c1c-2n(CCCBr)c(=O)c2cc([N+](=O)[O-])ccc12 — higher, > 100 µM
- NC(=O)c1cc(I)ccc1NC(=O)/C=C/c1ccccc1Cl — 12-fold lower, 1.72 µM
- CCSc1nc(NC(C)c2ccccc2)c2cnn(CO)c2n1 (centres undefined) — 3-fold higher, 61.1 µM
- Cc1cncc(-c2nc(NCCc3c[nH]c4ccccc34)c3ncn(C(C)C)c3n2)c1 — 4.3-fold lower, 4.82 µM

Reference: PubChem BioAssay (NCI)
